This is one part of the list.
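Note: jurkat cells carrying a lentiviral library of mutant zinc finger degrons fused to EGFP plus mCherry, mCherry+ cells FACS sorted, degron abundance counted by next-generation sequencing.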

For this assay, the target named is no compound (DMSO). Put plainly: log2 fold change of degron read counts, EGFP-low vs EGFP+ sorted cells; higher = lower degron-EGFP level without compound (poor expression or instability). The settings on record: compound: DMSO control; 18 h.
Consider FECPICGRIFTQKGNLLRHIKL, for which the “log2 fold change of degron read counts” value was -0.403. Then FGCDQCGAHFTQKGNLLRHIKL, with -0.667; and FKCPICGAMFTQKGNLLRHIKL, with -0.575; and FKCNQCGHRFTQKGNLLRHIKL, with -0.202. The figure for LICPICGFDCTQKGNLLRHIKL is 0.648; for FNCNICGAWFTQKGNLLRHIKL it is 0.675; for FYCPQCGADFTQKGNLLRHIKL it is -1.35.

Turning to FGCEICGRPFTQKGNLLRHIKL, the “log2 fold change of degron read counts” value was -0.454. Then LKCEICGFICTQKGNLLRHIKL, with 0.359. With FVCNQCGHGFTQKGNLLRHIKL, the “log2 fold change of degron read counts” value is -1.24. In the case of FFCEICGARFTQKGNLLRHIKL, the “log2 fold change of degron read counts” value is -0.886. Then FCCEICGHPFTQKGNLLRHIKL, with -0.437. Then FDCDVCGAYFTQKGNLLRHIKL, with 0.497; and FHCEICGRAFTQKGNLLRHIKL, with -1.27. As to FFCNQCGACFTQKGNLLRHIKL, the “log2 fold change of degron read counts” value was found to be 0.345. As for FECNQCGRYFTQKGNLLRHIKL, the “log2 fold change of degron read counts” value was found to be 0.102. The figure for FYCDVCGALFTQKGNLLRHIKL is -0.209; for FACNICGADFTQKGNLLRHIKL it is -2.57.

Consider FWCEICGRYFTQKGNLLRHIKL, for which the “log2 fold change of degron read counts” value came to 1.06. Then LCCEICGFDCTQKGNLLRHIKL, with -0.487; and LHCEICGFICTQKGNLLRHIKL, with 0.756; and FACNVCGALFTQKGNLLRHIKL, with -0.398. Then FSCPVCGASFTQKGNLLRHIKL, with -1.37. Then FMCEICGANFTQKGNLLRHIKL, with -1.88; and FMCPICGHRFTQKGNLLRHIKL, with -0.196; and FWCEQCGAQFTQKGNLLRHIKL, with -1.52. In the case of FACEICGRTFTQKGNLLRHIKL, the “log2 fold change of degron read counts” value was -1.73. Then FTCPICGHVFTQKGNLLRHIKL, with -0.248. The figure for FSCDVCGAPFTQKGNLLRHIKL is -0.983. The figure for FHCNQCGARFTQKGNLLRHIKL is -0.185; for LACEICGFACTQKGNLLRHIKL it is 0.0326; for FTCEICGRYFTQKGNLLRHIKL it is -0.133.

FVCNICGAGFTQKGNLLRHIKL: the “log2 fold change of degron read counts” value was -0.171. For FVCNICGAFFTQKGNLLRHIKL, the “log2 fold change of degron read counts” value is 0.227.

FDCNVCGASFTQKGNLLRHIKL: the “log2 fold change of degron read counts” value is -2.33. The figure for LCCNQCGFSCTQKGNLLRHIKL is 0.453; for LHCEICGFWCTQKGNLLRHIKL it is 1.13; for FTCEVCGAFFTQKGNLLRHIKL it is -1.02. Regarding FECNQCGHSFTQKGNLLRHIKL, the “log2 fold change of degron read counts” value is -1.46. Then LVCEICGFCCTQKGNLLRHIKL, with -0.0564; and FWCNICGAGFTQKGNLLRHIKL, with 0.814; and LICPICGFGCTQKGNLLRHIKL, with 1.06. Consider FECEICGRLFTQKGNLLRHIKL, for which the “log2 fold change of degron read counts” value is -0.848. In the case of FGCPICGRSFTQKGNLLRHIKL, the “log2 fold change of degron read counts” value is -0.738. Then FMCNICGACFTQKGNLLRHIKL, with -0.18; and FFCEICGRHFTQKGNLLRHIKL, with -1.14. As for FWCNICGALFTQKGNLLRHIKL, the “log2 fold change of degron read counts” value stood at 1.35. For FICEICGHYFTQKGNLLRHIKL, the “log2 fold change of degron read counts” value was -1.27. Then FICEQCGAGFTQKGNLLRHIKL, with -2.18; and FNCEVCGASFTQKGNLLRHIKL, with -2.12.

Values taken from the supplement of paper PMC12645437, “Orthogonal IMiD-Degron Pairs Induce Selective Protein Degradation in Cells” (ACS Chemical Biology, 2025).
